Test results as given in the RNAGym collection of RNA variant scans (doi:10.1101/gad.245936.114).
This sample is rich in variants without activity.

B1: tRNA (parent)
chain: CUCUCGGUAGCCAAGUUGGUUUAAGGCGCAAGACUUUAAUUUAUCACUACGAAAUCUUGAGAUCGGGCGUUCGACUCGCCCCCGGGAGAUUUUUUCCUCGAGCAA

Variants of: B1
Test: nonsense suppression (GFP-seq) (ratio to wild type); higher = more function; SUP4oc tRNA, yeast GFP reporter sort-seq
Outline: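 Yeast were grown in raffinose/galactose medium with 80 mg/L adenine, each strain bearing a genome-integrated ochre-suppressor tRNA variant from a ~3% random-mutation library, a galactose-driven GFP ochre reporter, and RFP. After sorting into GFP/RFP bins, every bin was sequenced on an Illumina platform at phred ≥30. The GFPSEQ value, a measure of nonsense suppression, is the weighted bin median GFP/RFP relative to the unmutated parent tRNA, using each variant's estimated cell share per bin as the weight. Only variants with ≥100 reads and ≥30 cells were included.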

Nonsense suppression, 0.0286:
A60G G66U

Nonsense suppression, 0.0498:
A60G G78U

Nonsense suppression, 0.119:
A60G G85C

Nonsense suppression, 0.0573:
U58G G85A

Nonsense suppression, ≤ 0.026:
U57G G66A
U57G G66C
U57G G67U C82G
U57G G85A
U57G G85A G86C
U57G G88A
U57G G88U
U57G U58C G66A G88A
U57G U58G
U57G U63A
U57G U70A G86U
U57G U70G
U57G U71A
U58A A60U
U58A A62U
U58A A74C
U58A A74G G88A
U58A A74U
U58A A89C
U58A C68G A74C
U58A C75G
U58A C79A
U58A C79G
U58A C81G
U58A C82A
U58A C82G
U58A G61U A62U G85U
U58A G66U
U58A G69U
U58A G78A
U58A G84C
U58A G88A A89U
U58A U70C G86C A89C
U58A U71A C83U
U58C C68G
U58C C72U C77A
U58C C80G
U58C C81G
U58C C82U
U58C G61A G73U
U58C G65C C82U
U58C G85A
U58C G86A
U58G A60C A62U
U58G A62U G86A G88A
U58G A74G C75A
U58G A87C
U58G C64U C80G
U58G C68U A89C
U58G C75G
U58G G59A U63G
U58G G59C G65U
U58G G59U
U58G G61A G69A
U58G G61C
U58G G61U
U58G G65C C82G
U58G G65C G69C C72A C79G
U58G G66C G73A
U58G G66U
U58G G66U C75A
U58G G67U C77A
U58G G73A
U58G G85U G86U
U58G G86U
U58G U63G
U58G U70A C79A
U58G U70G
G59A A74C
G59A A89C
G59A C64G U70C
G59A C68G C79A
G59A C75G
G59A C77G
G59A C77U G85U
G59A C79G
G59A C81A G85C
G59A C82A
G59A C83U
G59A G61A C81U
G59A G65A A89C
G59A G65U
G59A G67A
G59A G69A
G59A G69C U76G C80A
G59A G78C C82G G85C
G59A G85U
G59A U63C
G59A U63C C80A
G59A U70A
G59A U71A C79A G88C
G59A U71G C81A
G59A U76A
G59C A60C
G59C A60C U71G G78A
G59C A60G A62C U70G C79A
G59C A74U
G59C A87U
G59C C64A G88A
G59C C68A G88U A89C
G59C C77G
G59C C79A
G59C C82A
G59C C82U
G59C G61C
G59C G61U G65A A87C
G59C G66A
G59C G69U
G59C G73A G88U
G59C G84U
G59C G88C
G59C G88U
G59C U63A G66A C68U C72A
G59C U70A
G59C U70G
G59U A62G
G59U A62U
G59U A74C
G59U A89U
G59U C68U
G59U C72A
G59U C72G
G59U C72G C79G G86C
G59U C79A
G59U C80A
G59U C83G
G59U G61C C64A
G59U G65C
G59U G66A C75A
G59U G67C A74U
G59U G73C
G59U G78A
G59U G84C
G59U U63C G67C
G59U U70A C81U
G59U U70A C81U G88U
G59U U71C
A60C A74U
A60C C64U G66C G67C G69U
A60C C75U G86C
A60C C82U A89G
A60C G61A G69A G84A
A60C G61C G73C
A60C G65A G69U
A60C G65C U76C G78C
A60C G69A
A60C G73A
A60C G78A
A60C G84C G88A
A60C G86A
A60C G86C G88A
A60C U76A
A60G A62U U63C C64G G67C
A60G A87U
A60G C64G G69A G73U C82A
A60G C79G G86A
A60G C83G

Nonsense suppression, 0.717:
G59A C75A

Nonsense suppression, 0.0519:
A60C G73C

Nonsense suppression, 0.0424:
A60C A74G

Nonsense suppression, 0.114:
G59C G85A

Nonsense suppression, 0.0318:
A60G A74C

Nonsense suppression, 0.0684:
A60G A74G
